The campaign covered roughly 44,000 compounds. About 340 (0.77%) were called active. About 5% were inconclusive and are not listed. Calls come from the whole dose curve; as a rule, active = well fitted inhibition curve with a large enough effect; inconclusive = small, poorly fitted or top-dose-only effect; inactive = flat fitted curve, though single readings scatter. This is one part of the list.
assay: Acumen qHTS Assay for Inhibitors of the mTORC1 Signaling Pathway in MEF (Tsc2-/-, p53-/-) Cells: Sytravon; conditions: phospho-rpS6 immunofluorescence/PI, 24 h; series mostly up to 38.3 µM; activity change, negative = inhibition: at the top concentration;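 note: plate controls were DMSO for no effect and rapamycin for full effect; nearly all actives have a fitted effect of over 50% in size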
Method in brief: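 Read-out: phospho-S6 Alexa-488 intensity over PI intensity per well, scored as % active cells using thresholds from rapamycin (7.5 nM) and DMSO controls. Tsc2-/-, p53-/- MEFs exposed to compound for 24 h; PI cell count recorded as viability.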

| Structure (SMILES) | activity change, negative = inhibition |
| --- | --- |
| Cc1ccc(-c2nn(CCC(=O)Nc3ccc(Cl)c(Cl)c3)c(=O)c3ccccc23)cc1 | inactive: 3.43% |
| CCOc1cc(C2C(C(N)=O)=C(C)Nc3ncnn32)cc(Br)c1O (stereo unspecified) | inactive: 1.81% |
| COc1ccc(-c2nc(S(=O)(=O)c3ccc(Cl)cc3)c(N3CCCCCC3)o2)cc1 | inactive: 3.43% |
| Cc1ccc(C(=O)NCCSc2c(C)[nH]c3ccccc23)cc1C | inactive: 8.6% |
| Cc1cccc(NC(c2cccc(F)c2)c2ccc3ccc(C)nc3c2O)n1 (stereo unspecified) | inactive: -16.8% |
| NC(=O)CSc1nc2ccc(NC(=O)COc3ccccc3)cc2s1 | inactive: 1.23% |
| CCCn1c(=N)c(C(=O)NC2CCCC2)cc2c(=O)n3cc(C)ccc3nc21 | inactive: 0.236% |
| CC1CCC(NC(=O)c2ccc3c(c2)N(Cc2ccccc2F)C(=O)c2ccccc2S3)CC1 (stereo unspecified) | inactive: -0.0302% |
| CC1CCN(S(=O)(=O)c2ccc3c(c2)N(CC(=O)NCc2ccccc2Cl)C(=O)CS3)CC1 | inactive: 1.49% |
| Cc1nc2ccc(S(=O)(=O)NC(C(=O)NCc3ccccc3Cl)C(C)C)cc2s1 (stereo unspecified) | inactive: -9.85% |
| CCCCNc1ccc(-c2nc(-c3ccccc3)no2)cc1[N+](=O)[O-] | inactive: -7.27% |
| O=C(Nc1cccc(C(F)(F)F)c1)C1CCCN(S(=O)(=O)c2cccc3nsnc23)C1 (stereo unspecified) | inactive: -3.65% |
| Cc1ccc2c(CC(=O)N3CCN(c4cccc(Cl)c4)CC3)coc2c1 | inactive: 2.25% |
| O=S(=O)(Nc1ccc(F)c(C(F)(F)F)c1)c1ccc(N2CCCCS2(=O)=O)cc1 | inactive: 23.5% |
| COc1ccc(C2C(=O)N(C3CCC(C)CC3)CC(=O)N2Cc2ccc(C)cc2)cc1OC (stereo unspecified) | inactive: -10% |
| CSc1ncc(Cl)c(C(=O)NCc2ccc(C)cc2)n1 | inactive: -3.35% |
| Cc1cc(C)cc(NC(=O)Cn2nnc(C(=O)NCCc3ccccc3)c2N)c1 | inactive: -2.21% |
| COc1ccc(OC)c(CNS(=O)(=O)c2c(C(=O)N3CCC(C)CC3)c(C)n(C)c2C)c1 | inactive: 0% |
| CCOc1ccc(C(=O)NCCc2sc(-c3ccc(C)cc3)nc2C)cc1 | inactive: -6.88% |
| COc1cc(Nc2nc(SCc3ccccc3F)nc3ccccc23)cc(OC)c1 | inactive: -4.9% |
| Cc1ccc(CCNC(=O)c2ccc(CS(=O)(=O)c3ccc(Br)cc3)o2)cc1 | inactive: -21.3% |
| CCOc1ccccc1NC(=O)CSc1c(C)cnc2c1c(=O)n(C)c(=O)n2C | inactive: -0.136% |
| CC1=C(C(=O)Nc2cccc(C)c2C)C2(CCCCC2)OC1=O | inactive: -11.4% |
| CC1=C(C(=O)Nc2c(C)cc(C)cc2C)C2(CCN(C(C)C)CC2)OC1=O | inactive: 0% |

| Structure (SMILES) | activity change, negative = inhibition |
| --- | --- |
| CCOCCCNC(=O)C(c1ccc(OC)cc1)N(Cc1cccs1)C(=O)c1ccccc1O (stereo unspecified) | inactive: 3.76% |
| COc1ccc(CCNC(=O)c2cnc3sc(N4CCCCCC4)nn3c2=O)cc1OC | inactive: 0.0984% |
| CC(C)CCN1C(=O)N(c2ccccc2)C(=O)C1CC(=O)Nc1ccc(Cl)cc1 (stereo unspecified) | inactive: -0.587% |
| CC(C)NC(=O)CSc1nc2ccccc2nc1N1CCCCC1 | inactive: -1.44% |
| Cc1ccc(Sc2ccc(N3CCCC(C(=O)Nc4ccc(Cl)cc4)C3)nn2)cc1 (stereo unspecified) | inactive: 0.421% |
| COc1ccc(C(c2c(C)n(C)n(-c3ccccc3)c2=O)c2c(C)n(C)n(-c3ccccc3)c2=O)cc1O | inactive: -20.7% |
| CCOc1cccc2sc(N(Cc3cccnc3)C(=O)c3ccco3)nc12 | inactive: -2.56% |
| COc1cc(OC)c(NC(=O)Nc2nnc(N(C)C3CCCCC3)s2)cc1Cl | inactive: 2.69% |
| Cc1ccc(N2CC(NC(=O)Cc3cccs3)CC2=O)cc1 (stereo unspecified) | inactive: -3.25% |
| COc1ccc(-c2cc3c(=O)n(CC(=O)Nc4ccccc4C(F)(F)F)ccn3n2)cc1OC | inactive: 21.6% |
| CC1CCN(CC(=O)N2CCCc3c2c(=O)oc2ccc(OCc4ccccc4)cc32)CC1 | inactive: -3.82% |
| CC(=O)c1ccc(NC(=O)CN(C)S(=O)(=O)c2cc3c(cc2C)NC(=O)CO3)cc1 | inactive: -6.31% |
| Cc1c(C(=O)Nc2ccc(Br)cc2F)oc2ccc(S(=O)(=O)N3CCCCC3)cc12 | inactive: 2.17% |
| CC1(C(=O)Nc2cccc(C(F)(F)F)c2)Cc2ccccc2C(=O)O1 (stereo unspecified) | inactive: -11.9% |
| COc1ccc(CNC(=O)C2CCCCN2S(=O)(=O)c2ccc(F)cc2)cc1 (stereo unspecified) | inactive: 5.64% |
| Cc1nc(N2CCOCC2)c2c(C(=O)N3CCN(c4cc(Cl)ccc4C)CC3)c(C)oc2n1 | inactive: -4.44% |
| O=C(CN1C(=O)C2CCCCN2c2ccc(C(=O)N3CCCC3)cc21)NCc1ccc(F)cc1 (stereo unspecified) | inactive: 0% |
| CCOc1ccccc1CNc1ncnc2onc(-c3ccc(F)cc3)c12 | inactive: -2.52% |
| CCN1CCC(N(Cc2ccc(F)cc2)C(=O)Nc2cc(C)ccc2C)CC1 | inactive: 0.19% |
| CCCNC(=O)CN1C(=O)COc2ccc(S(=O)(=O)N3CCCC3)cc21 | inactive: -7.58% |
| COc1ccc(-n2cc(C(=O)NCCc3ccc(C)cc3)c3ccccc3c2=O)cc1 | inactive: -21% |
| CC1CCCCN1C(=O)CSc1nc2ccccc2nc1Cc1ccccc1 (stereo unspecified) | inactive: -0.447% |
| COC(=O)c1ccc(C2CC(=O)Nc3c2c(C)nn3-c2nc(C)cc(C)n2)cc1 (stereo unspecified) | inactive: -1.06% |
| O=C(Nc1ccc(S(=O)(=O)Nc2ncccn2)cc1)c1cccc(Cl)c1 | inactive: -5.33% |

| Structure (SMILES) | activity change, negative = inhibition |
| --- | --- |
| CCOc1ccc(N2C(=O)c3[nH]nc(-c4ccccc4)c3C2c2ccc(O)c(OC)c2)cc1 (stereo unspecified) | inactive: -23% |
| CCn1c(SC)nc2c([nH]c3ccccc32)c1=O | inactive: -5.23% |
| Cc1cc(C)cc(NC(=O)CC(C)n2nc(C)cc2C)c1 (stereo unspecified) | inactive: -11.3% |
| CCN(CC)c1ccc(NC(=O)CN2CCN(S(=O)(=O)c3ccc(C(C)C)cc3)CC2)cc1 | inactive: -10.5% |
| O=C(Cn1ccc2cc(S(=O)(=O)N3CCCC3)ccc21)NCc1ccc(Cl)cc1 | inactive: -7.02% |
| COc1ccc(CNC(=O)c2ccc3c(c2)N=C(C)c2c(C)ccc(C)c2S3)cc1 | inactive: 0.981% |
| COc1cc(NC(=O)Cn2c(=O)n(Cc3ccccc3)c(=O)c3oc4ccccc4c32)cc(OC)c1 | inactive: 1.74% |
| CCOC(=O)c1c(S(=O)(=O)N2CCC(C(=O)Nc3ccc(C)cn3)CC2)c(C)n(C)c1C | inactive: 0.287% |
| Cc1cc(-c2ccc(S(=O)(=O)Nc3ccccc3C)cc2)on1 | inactive: -18.1% |
| COc1ccc(-c2noc(CC(=O)N(C)c3ccccc3F)n2)cc1 | inactive: 0.316% |
| O=C(Nc1ccc(F)cc1)C1CCN(c2nc3ccccc3nc2C(F)(F)F)CC1 | inactive: 3.9% |
| COc1ccc(NC(=O)C2=C(C)Nc3nc(SCc4ccc(C)cc4C)nn3C2c2cccc(OC)c2OC)cc1 (stereo unspecified) | inactive: 8.43% |
| Cc1[nH]c(=O)[nH]c(=O)c1S(=O)(=O)Nc1cccc(Cl)c1C | inactive: -7.78% |
| CCOc1ccc(CNC(=O)Cn2nc(C)c3nn(-c4ccc(Cl)cc4)c(C)c3c2=O)cc1 | inactive: 0% |
| COc1cc(-c2ccno2)ccc1S(=O)(=O)N1CCN(c2cccc(Cl)c2)CC1 | inactive: 1.05% |
| COc1ccccc1NC(=O)c1sc2nc(-c3cc4cc(Cl)ccc4oc3=O)[nH]c(=O)c2c1C | inactive: -15.3% |
| Cc1ccc(CNC(=O)c2oc3ccc(S(=O)(=O)N4CCCC(C)C4)cc3c2C)cc1 (stereo unspecified) | inactive: 5.48% |
| Cc1oc2ncnc(N3CCCCC3)c2c1C(=O)NCC1CCN(Cc2ccccc2F)CC1 | inactive: 3.49% |
| COc1ccc(OC)c(NC(=O)Cn2nc3c(cc2=O)CCCC3)c1 | inactive: 2.7% |
| CCc1ccc(NC(=O)CC2C(=O)N(c3cccc(C)c3)C(=O)N2Cc2cccc(OC)c2)cc1 (stereo unspecified) | inactive: -0.775% |
| COc1ccc(CCNS(=O)(=O)c2ccc3c(c2)c(=O)n(C)c(=O)n3C)cc1OC | inactive: 1.33% |
| CCc1nn(CC(=O)NCc2ccco2)c(=O)c2cc3cc(F)ccc3n12 | inactive: 0.645% |
| Cc1ccc(NC(=O)c2nc(S(C)(=O)=O)ncc2N(Cc2cccc(F)c2)Cc2ccco2)cc1C | inactive: 0.0042% |
| NS(=O)(=O)c1ccc(NC(=O)c2cc(-c3cccs3)nc3ccccc23)cc1 | inactive: 14.6% |

| Structure (SMILES) | activity change, negative = inhibition |
| --- | --- |
| Cc1ccc(NC(=O)CCCc2nnc3n(C)c(=O)c4sccc4n23)cc1C | inactive: -15.3% |
| Cc1cccc2sc(N(CCCN(C)C)C(=O)COc3ccccc3)nc12 | inactive: -0.948% |
| COC(=O)c1ccccc1NC(=O)Cn1c(=O)n(-c2cccc(C(F)(F)F)c2)c(=O)c2c(C)c(C)sc21 | inactive: -0.613% |
| Cc1ccc(C)c(N2CCN(C(=O)c3cc(S(=O)(=O)N4CCCCCC4)cn3C)CC2)c1 | inactive: -13% |
| COCCCNC(=O)c1ccc(Cn2c(SCc3cccc(C)c3)nc3cccnc32)cc1 | inactive: -8.57% |
| Cc1ccc(S(=O)(=O)NCC2CCC(C(=O)NCCc3ccc(Cl)cc3)CC2)cc1 (stereo unspecified) | inactive: -12.6% |
| CCOc1ccc(N(CC)S(=O)(=O)N2CCCC(C(=O)NCCc3ccc(OC)cc3)C2)cc1 (stereo unspecified) | inactive: -0.947% |
| O=C(/C=C\c1ccccc1)NC1CC(=O)N(c2ccccc2)C1 (stereo unspecified) | inactive: -1.67% |
| CCOC(=O)C1CCCN(C(=O)c2nn(-c3ccc(C)cc3)c(=O)c3c2c2ccccc2n3C)C1 (stereo unspecified) | inactive: -0.912% |
| CCCn1c(CCCNC(=O)c2ccccc2OC)nc2ccccc21 | inactive: 2.1% |
| Cc1cc(C)c2c(n1)sc1c(=O)n(-c3cc(Cl)ccc3C)nnc12 | inactive: 2.69% |
| CCN(Cc1ccccc1)C(=O)c1sc2nc3n(c(=O)c2c1C)CCCC3 | inactive: 9.99% |
| CCCCN(C)CCCNC(=O)Cn1ncc2c3ccccc3n(Cc3cc(C)ccc3C)c2c1=O | inactive: -5.49% |
| COc1ccccc1CNC(=O)c1cc2c(s1)-c1ccccc1OC2 | inactive: 3.19% |
| CCC(=O)N1c2ccc(S(=O)(=O)CCC(=O)Nc3ccc(Br)c(C)c3)cc2CC1C (stereo unspecified) | inactive: -5.48% |
| CCOCCCN(Cc1ccco1)C(=O)c1cc2c(=O)[nH]c3ccc(C)cc3c2s1 | inactive: -4.06% |
| O=S(=O)(c1ccccc1)c1nnn2c1nc(NCc1ccccc1)c1sccc12 | inactive: -10.1% |
| COCCNC(=O)Cn1c(=O)n(CCCCCC(=O)Nc2ccccc2)c(=O)c2sccc21 | inactive: -6.18% |
| O=C(NCc1cccs1)c1ccc(Cn2c(SCc3ccc(F)cc3)nc3cccnc32)cc1 | inactive: -4.78% |
| Cc1ccc(Cl)cc1N1CCN(C(=O)CN2C(=O)CSc3c2c(C)nn3-c2ccccc2)CC1 | inactive: 0.799% |
| COc1cccc(NC(=O)c2cnc(SCC(=O)N3CCOCC3)n(C)c2=O)c1 | inactive: -1.86% |
| CCc1ccc2c(c1)-c1ccccc1S(=O)(=O)N2CC(=O)N1CCCCC1 | inactive: -4.33% |
| COc1ccc(-c2cn3c(n2)sc2cc(C(=O)NCCc4ccc(OC)cc4OC)ccc23)cc1 | inactive: -3.22% |
| O=C(NCCCc1nc2ccccc2n1Cc1ccc(Cl)cc1Cl)c1ccco1 | inactive: -1.8% |

— PubChem BioAssay AID493208 (National Center for Advancing Translational Sciences (NCATS), 2011)
